The campaign covered roughly 310,000 compounds. About 2,200 (0.71%) showed an effect of 50% or more. Effects have a minus sign here. Some of the results follow.
target: human ether-à-go-go-related gene (hERG) potassium channel (human, UniProt Q12809); assay: primary screen, population patch clamp on CHO cells stably expressing hERG
Sequence (Q12809 whole entry, looked up): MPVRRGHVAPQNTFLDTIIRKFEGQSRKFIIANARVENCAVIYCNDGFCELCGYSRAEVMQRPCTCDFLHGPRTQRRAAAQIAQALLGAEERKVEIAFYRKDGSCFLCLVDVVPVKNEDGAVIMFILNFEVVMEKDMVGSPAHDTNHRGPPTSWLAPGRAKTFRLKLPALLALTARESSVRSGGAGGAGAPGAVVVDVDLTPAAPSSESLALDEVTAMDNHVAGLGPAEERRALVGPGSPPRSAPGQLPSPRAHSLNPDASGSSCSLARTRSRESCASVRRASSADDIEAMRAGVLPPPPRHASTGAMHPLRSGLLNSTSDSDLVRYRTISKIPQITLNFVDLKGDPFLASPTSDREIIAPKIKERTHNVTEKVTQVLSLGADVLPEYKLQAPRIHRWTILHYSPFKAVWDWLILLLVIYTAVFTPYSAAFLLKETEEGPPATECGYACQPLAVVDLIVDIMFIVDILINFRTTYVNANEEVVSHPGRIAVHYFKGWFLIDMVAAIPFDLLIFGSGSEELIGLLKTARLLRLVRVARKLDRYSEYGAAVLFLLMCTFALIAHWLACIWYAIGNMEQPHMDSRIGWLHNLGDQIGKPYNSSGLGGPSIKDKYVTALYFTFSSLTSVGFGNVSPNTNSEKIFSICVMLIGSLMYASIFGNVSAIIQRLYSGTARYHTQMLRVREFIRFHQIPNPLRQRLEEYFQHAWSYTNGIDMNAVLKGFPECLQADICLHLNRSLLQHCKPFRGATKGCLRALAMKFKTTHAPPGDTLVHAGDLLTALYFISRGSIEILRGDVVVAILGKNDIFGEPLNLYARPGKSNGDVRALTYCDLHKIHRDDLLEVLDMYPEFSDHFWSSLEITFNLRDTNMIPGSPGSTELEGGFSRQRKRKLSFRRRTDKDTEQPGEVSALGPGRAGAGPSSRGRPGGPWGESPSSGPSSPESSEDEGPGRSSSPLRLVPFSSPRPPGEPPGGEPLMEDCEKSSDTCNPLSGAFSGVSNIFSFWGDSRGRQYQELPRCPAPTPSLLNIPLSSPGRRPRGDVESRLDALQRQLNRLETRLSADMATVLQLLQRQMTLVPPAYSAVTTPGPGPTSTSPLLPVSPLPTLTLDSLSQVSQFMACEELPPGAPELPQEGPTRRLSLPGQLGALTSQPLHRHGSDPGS

**Q.** `O=C(Cc1ccc(-c2ccccc2)cc1)Nc1ccccn1` was tested. Which “hERG current change (%, negative = inhibition) at 1uM” value did it give?
**A.** 15.4%

**Q.** With `COc1ccc(/C=C/C(=O)NC(=S)NN2CCCCC2c2cccnc2)cc1OC` (stereo not drawn) as the compound, how does the “hERG current change (%, negative = inhibition) at 1uM” value read?
**A.** 9.17%

**Q.** Which “hERG current change (%, negative = inhibition) at 1uM” value does the source give for `COC(=O)c1ccc(NC(=O)COC(=O)C2=NN(c3ccccc3)C(=O)CC2)cc1` here?
**A.** 7.17%

**Q.** For `Cc1cccc(C2c3[nH]c4ccccc4c3CCN2Cc2ccc(C)s2)n1` (stereo not drawn), which “hERG current change (%, negative = inhibition) at 1uM” value is on record?
**A.** 17.9%

**Q.** How did the “hERG current change (%, negative = inhibition) at 1uM” value turn out when `CN(C)CCNC(=O)c1cccn(Cc2cc(C(F)(F)F)cc(C(F)(F)F)c2)c1=O` was run?
**A.** -3.69%

**Q.** How did the “hERG current change (%, negative = inhibition) at 1uM” value turn out when `Br.O=[N+]([O-])c1cccc(-n2nnnc2CN2CCCC2)c1` was run?
**A.** 3.25%

**Q.** With `C#CCOCCOCCOCCNc1nc(N2CCN(C(=O)[C@H]([C@@H](C)CC)n3cc([C@@H](N)Cc4ccc(O)cc4)nn3)CC2)nc(N2CCN(C(=O)[C@H]([C@@H](C)CC)n3cc([C@@H](N)Cc4ccc(O)cc4)nn3)CC2)n1.Cl` as the compound, how does the “hERG current change (%, negative = inhibition) at 1uM” value read?
**A.** 7.88%

**Q.** For `CC(C)(C)c1ccc(OCCC(=O)NCC(c2cccs2)N2CCOCC2)cc1` (stereo not drawn), which “hERG current change (%, negative = inhibition) at 1uM” value is on record?
**A.** -7.09%

**Q.** `O=C(Cn1ncc2c(=O)oc3ccccc3c21)N1CCN(C(=O)c2ccco2)CC1` was tested. Which “hERG current change (%, negative = inhibition) at 1uM” value did it give?
**A.** -37%

**Q.** For `COc1ccc(-c2nn(-c3ccccc3)cc2C(=O)Nc2ccc(C(=O)O)cc2)cc1OC`, which “hERG current change (%, negative = inhibition) at 1uM” value is on record?
**A.** 13.5%

**Q.** With `Cn1c(=NC(=O)CCS(=O)(=O)c2ccccc2)sc2cc(F)ccc21` as the compound, how does the “hERG current change (%, negative = inhibition) at 1uM” value read?
**A.** 13.6%

**Q.** Which “hERG current change (%, negative = inhibition) at 1uM” value does the source give for `CCOC(=O)C1=C(C)N=C2c3ccccc3C(=O)C2C1c1ccc(Cl)cc1` (stereo not drawn) here?
**A.** 10.9%

**Q.** `CCc1ccc(NC(=O)CC2NCCNC2=O)cc1` (stereo not drawn) was tested. Which “hERG current change (%, negative = inhibition) at 1uM” value did it give?
**A.** 9.3%

**Q.** How did the “hERG current change (%, negative = inhibition) at 1uM” value turn out when `CCn1cc(C(=O)O)c(=O)c2cnc(N3CCN(C(=S)NC(=O)c4ccc(Cl)cc4Cl)CC3)nc21` was run?
**A.** 14.2%

**Q.** For `CCCCN(C(=O)CCCc1nc2ccccc2s1)c1c(N)n(CCCC)c(=O)[nH]c1=O`, which “hERG current change (%, negative = inhibition) at 1uM” value is on record?
**A.** 0.792%

**Q.** Which “hERG current change (%, negative = inhibition) at 1uM” value does the source give for `O=C(Cc1csc(-c2ccccc2)n1)NCc1cccs1` here?
**A.** 8.81%

**Q.** How did the “hERG current change (%, negative = inhibition) at 1uM” value turn out when `CCCNC(=O)C1CCN(S(=O)(=O)c2cccs2)CC1` was run?
**A.** 20.6%

**Q.** For `CN(CC(=O)NCc1ccc(F)cc1)S(=O)(=O)c1ccc2c(c1)c(=O)n(C)c(=O)n2C`, which “hERG current change (%, negative = inhibition) at 1uM” value is on record?
**A.** 4.64%

**Q.** With `O=C(CSc1nnc(SCc2ccccc2)s1)N/N=C/c1ccc(C(=O)O)cc1` as the compound, how does the “hERG current change (%, negative = inhibition) at 1uM” value read?
**A.** 10.3%

**Q.** For `Cc1ccc([N+](=O)[O-])cc1S(=O)(=O)Nc1ccc(C(=O)N2CCN(C(=O)c3ccco3)CC2)cc1`, which “hERG current change (%, negative = inhibition) at 1uM” value is on record?
**A.** 13.4%

**Q.** For `COCC(C)NC(=O)CCS(=O)(=O)c1nc(-c2ccc(OC)cc2)cc(C(F)(F)F)n1` (stereo not drawn), which “hERG current change (%, negative = inhibition) at 1uM” value is on record?
**A.** 15.6%

From PMC4336329 (PLoS ONE, 2015)
